The other results are listed elsewhere or left out. Most values come without repeats; read them as rough.
Key:
Test in all cases: cell count relative to DMSO control; melanoma cells; higher = more viable cells
Conditions in all cases: library dose: standard library concentration; 72 h; first compound 2 µM
[1] = tested on: G361
[2] = tested on: IPC-298
[3] = tested on: IST-MEL1
[4] = tested on: LB2518-MEL
[5] = tested on: LOXIMVI
[6] = tested on: MEL-HO
[7] = tested on: MZ2-MEL
[8] = tested on: MeWo
[9] = tested on: RPMI7951
[10] = tested on: RVH-421
[11] = tested on: SkMel28
[12] = tested on: SkMel2
[13] = tested on: SkMel30
[14] = tested on: SkMel5
[15] = tested on: UACC257
[16] = tested on: UACC62
[17] = tested on: WM115
[18] = tested on: WM1716
[19] = tested on: WM3526
[20] = tested on: WM1745
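Further: cells treated in 1,536-well plates, then fixed and DAPI-stained, with nuclei counted from automated high-throughput microscope images.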

## Cn1sc(=O)n(Cc2ccccc2)c1=O + Oc1cc(-c2nc(-c3ccccc3)[nH]c2-c2ccncc2)ccc1Cl [L779450] (partner dose 1 µM)
[1]
  cell count: 74%
[2]
  cell count: 85.1%
[3]
  cell count: 88.7%
[4]
  cell count: 98.6%
[5]
  cell count: 125%
[6]
  cell count: 87.6%
[7]
  cell count: 106%
[8]
  cell count: 107%
[9]
  cell count: 97.8%
[10]
  cell count: 81.8%
[11]
  cell count: 39.6%
[12]
  cell count: 23.1%
[13]
  cell count: 82.1%
[14]
  cell count: 77.6%
[15]
  cell count: 77%
[16]
  cell count: 47.7%
[17]
  cell count: 55.5%
[18]
  cell count: 80.7%
[19]
  cell count: 51.1%

## C[C@@H](N)c1ccc(C(=O)Nc2ccnc3[nH]ccc23)cc1 + CCN(CC)CCNC(=O)c1c(C)[nH]c(/C=C2\C(=O)Nc3ccc(F)cc32)c1C [sunitinib] (partner dose 2 µM)
[1]
  cell count: 79.4%
[2]
  cell count: 78.3%
[3]
  cell count: 77.1%
[5]
  cell count: 74.8%
[6]
  cell count: 74%
[8]
  cell count: 58.5%
[9]
  cell count: 24.9%
[10]
  cell count: 79.9%
[11]
  cell count: 67.7%
[12]
  cell count: 60.6%
[13]
  cell count: 80.5%
[14]
  cell count: 44.8%
[15]
  cell count: 52.5%
[16]
  cell count: 52.1%
[17]
  cell count: 81.9%
[18]
  cell count: 41.2%
[20]
  cell count: 12.6%
[19]
  cell count: 59.6%

## C[C@@H](N)c1ccc(C(=O)Nc2ccnc3[nH]ccc23)cc1 + N#Cc1c(O)c2c(-c3ccc(-c4ccccc4O)cc3)csc2[nH]c1=O [A769662] (partner dose 10 µM)
[1]
  cell count: 87.5%
[2]
  cell count: 92.5%
[3]
  cell count: 74.5%
[4]
  cell count: 111%
[5]
  cell count: 93.6%
[6]
  cell count: 73%
[7]
  cell count: 61%
[8]
  cell count: 60.1%
[9]
  cell count: 56.7%
[10]
  cell count: 59.4%
[11]
  cell count: 76.2%
[12]
  cell count: 101%
[13]
  cell count: 76.1%
[14]
  cell count: 48.1%
[15]
  cell count: 65.5%
[16]
  cell count: 76.2%
[17]
  cell count: 103%
[18]
  cell count: 31.8%
[19]
  cell count: 78.1%

## C[C@@H](N)c1ccc(C(=O)Nc2ccnc3[nH]ccc23)cc1 + C[C@@H](Oc1cc(-c2cnn(C3CCNCC3)c2)cnc1N)c1c(Cl)ccc(F)c1Cl [Crizotinib] (partner dose 1 µM)
[1]
  cell count: 72.2%
[2]
  cell count: 88.9%
[3]
  cell count: 77.7%
[5]
  cell count: 146%
[6]
  cell count: 64.9%
[8]
  cell count: 50.7%
[9]
  cell count: 46.4%
[10]
  cell count: 45.9%
[11]
  cell count: 63.7%
[12]
  cell count: 82.4%
[13]
  cell count: 77.9%
[14]
  cell count: 47.6%
[15]
  cell count: 68.1%
[16]
  cell count: 68.6%
[17]
  cell count: 65.7%
[18]
  cell count: 38.8%
[20]
  cell count: 33.5%
[19]
  cell count: 72.4%

## Cn1sc(=O)n(Cc2ccccc2)c1=O + Nc1ccn([C@@H]2O[C@H](CO)[C@@H](O)C2(F)F)c(=O)n1 [gemcitabine] (partner dose 0.002 µM)
[1]
  cell count: 45.5%
[2]
  cell count: 41.4%
[3]
  cell count: 43.7%
[5]
  cell count: 66.1%
[6]
  cell count: 53.5%
[8]
  cell count: 39.2%
[9]
  cell count: 45%
[10]
  cell count: 46.8%
[11]
  cell count: 127%
[12]
  cell count: 97.2%
[13]
  cell count: 118%
[14]
  cell count: 69.8%
[15]
  cell count: 92.1%
[16]
  cell count: 87.3%
[17]
  cell count: 62.7%
[18]
  cell count: 62.2%
[20]
  cell count: 45.6%
[19]
  cell count: 103%

## CCCCCCCCCCCCCCCCCCOP(=O)([O-])OC1CC[N+](C)(C)CC1 [Perifosine] + CO[C@H]1C[C@@H]2CC[C@@H](C)[C@@](O)(O2)C(=O)C(=O)N2CCCC[C@H]2C(=O)O[C@H]([C@H](C)C[C@@H]2CC[C@@H](OCCO)[C@H](OC)C2)CC(=O)[C@H](C)/C=C(\C)[C@@H](O)[C@@H](OC)C(=O)[C@H](C)C[C@H](C)/C=C/C=C/C=C/1C [everolimus] (partner dose 0.1 µM)
[1]
  cell count: 55.4%
[2]
  cell count: 70.9%
[3]
  cell count: 78.8%
[5]
  cell count: 72.9%
[6]
  cell count: 73.4%
[8]
  cell count: 73.7%
[9]
  cell count: 38.2%
[10]
  cell count: 59.1%
[11]
  cell count: 47%
[12]
  cell count: 71.6%
[13]
  cell count: 72.5%
[14]
  cell count: 60.6%
[15]
  cell count: 103%
[16]
  cell count: 56.5%
[17]
  cell count: 61.6%
[18]
  cell count: 82.5%
[20]
  cell count: 83.8%
[19]
  cell count: 69.5%

## Cn1sc(=O)n(Cc2ccccc2)c1=O + O=C(Nc1ccccc1)c1cc([N+](=O)[O-])ccc1Cl [GW9662] (partner dose 10 µM)
[1]
  cell count: 82%
[2]
  cell count: 102%
[3]
  cell count: 90%
[4]
  cell count: 90.2%
[5]
  cell count: 82.7%
[6]
  cell count: 97.3%
[7]
  cell count: 79.8%
[8]
  cell count: 76.3%
[9]
  cell count: 64.9%
[10]
  cell count: 80.1%
[11]
  cell count: 48.2%
[12]
  cell count: 85.5%
[13]
  cell count: 86.6%
[14]
  cell count: 66.8%
[15]
  cell count: 85.3%
[16]
  cell count: 80.8%
[17]
  cell count: 71.7%
[18]
  cell count: 99.2%
[19]
  cell count: 80.7%

## Cn1sc(=O)n(Cc2ccccc2)c1=O + Oc1nc(-c2ccc(C(F)(F)F)cc2)nc2c1CSCC2 [XAV939] (partner dose 10 µM)
[1]
  cell count: 73.8%
[2]
  cell count: 93.9%
[3]
  cell count: 102%
[4]
  cell count: 88.7%
[5]
  cell count: 100%
[6]
  cell count: 81.3%
[7]
  cell count: 100%
[8]
  cell count: 92.3%
[9]
  cell count: 76.2%
[10]
  cell count: 265%
[11]
  cell count: 67.3%
[12]
  cell count: 106%
[13]
  cell count: 88.2%
[14]
  cell count: 66.5%
[15]
  cell count: 80.8%
[16]
  cell count: 86.1%
[17]
  cell count: 95%
[18]
  cell count: 42.8%
[19]
  cell count: 90.5%

## Cn1sc(=O)n(Cc2ccccc2)c1=O + O=C(O)C(=O)Nc1sc2c(c1C(=O)O)CCNC2 [TCS401] (partner dose 8.33333 µM)
[1]
  cell count: 93.2%
[2]
  cell count: 96%
[3]
  cell count: 102%
[4]
  cell count: 92%
[5]
  cell count: 81.2%
[6]
  cell count: 84.7%
[7]
  cell count: 94.3%
[8]
  cell count: 87.6%
[9]
  cell count: 85.4%
[10]
  cell count: 38.7%
[11]
  cell count: 102%
[12]
  cell count: 96%
[13]
  cell count: 100%
[14]
  cell count: 72.3%
[15]
  cell count: 79.3%
[16]
  cell count: 66.7%
[17]
  cell count: 80%
[18]
  cell count: 85.5%
[19]
  cell count: 80.9%

## C[C@@H](N)c1ccc(C(=O)Nc2ccnc3[nH]ccc23)cc1 + COC(=O)c1sccc1S(=O)(=O)Nc1ccc(Nc2ccccc2)cc1OC [GSK0660] (partner dose 5 µM)
[1]
  cell count: 93.6%
[2]
  cell count: 104%
[3]
  cell count: 92.1%
[4]
  cell count: 118%
[5]
  cell count: 105%
[6]
  cell count: 77.1%
[7]
  cell count: 84.7%
[8]
  cell count: 73.4%
[9]
  cell count: 62.2%
[10]
  cell count: 51.5%
[11]
  cell count: 125%
[12]
  cell count: 100%
[13]
  cell count: 67.2%
[14]
  cell count: 63%
[15]
  cell count: 59.2%
[16]
  cell count: 80.8%
[17]
  cell count: 116%
[18]
  cell count: 50.8%
[19]
  cell count: 112%

From the supplement of paper PMC4604168 (melanoma cell lines)
